The supplement of paper PMC3334620
In all, about 33,000 sequences were measured (“E-score (-0.5 to 0.5)”: median about -0.056, highest 2% from about 0.38 on). Some of the results follow.

These sequences were tested against Stb4 (UniProt P50104) (assay: PBM E-score (8-mer binding enrichment) (E-score (-0.5 to 0.5)); higher = stronger / more preferred TF binding; most listed sequences are background and not binding sites). Conditions: protein concentration: 200 nM; construct: GST-DNA-binding domain.
How it was run: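 The E-score, a modified Wilcoxon-Mann-Whitney statistic, was computed by the Universal PBM Analysis Suite for every ungapped eight-base word pooled with its reverse complement. Scans behind it were normalised with masliner after bound GST-tagged yeast transcription factors were detected with fluorescent anti-GST. The proteins, at about 100-200 nM, had been applied to universal all-10-mer Agilent arrays made double-stranded by primer extension.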

Sequence	PBM E-score
AGGTCCAA	-0.103
CAGGATAA	-0.12
AACGGATT	0.155
CCGGACCG	0.352
TACAAAGA	0.00433
ACCGATAG	0.134
AGCAATCC	0.0833
CCGGCGGA	0.365
CATCAGAG	-0.205
GCTTGAAC	-0.0164
ACTGGGCG	-0.0808
ACGGTGCA	-0.216
CTCGGGAC	0.45
TACTGTGA	-0.0686
GGGACACC	0.139
ACGTTGTA	-0.179
CAAGTGCC	-0.145
AAGGATGG	-0.0659
GGGCTGCA	-0.092
ATCGACCC	0.137
GGCTGTAC	-0.0835
GGTAATGA	0.142

Sequence	PBM E-score
CAAATTAG	-0.153
AAATGTTA	0.0118
CGTCCGCC	0.184
GATGCGGA	0.23
GTCTCTCA	-0.0855
ATAATACC	0.168
CCTGGAAC	-0.19
CCAGATCA	-0.11
GGGTGCAC	-0.0674
AGGTCAAC	-0.183
ATCGTCGA	-0.0764
GCTAGAAC	-0.109
CCTGGCCA	-0.225
CTCAGCCA	-0.159
CACACCCG	0.3
GCCAAAAC	-0.0281
TAATAAAA	-0.0954
CTGATTTC	-0.0899
CAGGGCCA	-0.284
AACGCTAT	-0.00059
ACGATCCT	-0.122
AAGAGGGC	-0.307

Sequence	PBM E-score
ACTGTCCC	-0.0308
TAGTCGCA	-0.0285
CGAATGCG	0.177
AGCTCCAG	-0.23
CATTTTAA	0.0126
CCGCGATA	0.115
GCCGGTTA	0.182
GCACGAGA	-0.0157
CACGTGAC	-0.103
CAATTAGA	-0.273
GCTTTTGA	-0.0138
CATCATGG	-0.0411
CTCTTCAC	-0.253
CCATCGGC	0.303
AATAATCA	-0.0307
AAGTTATG	-0.135
ATCTACGA	-0.165
ACGTGAGT	-0.168
GAAGTATC	0.0329
ACTGGGAA	-0.0873
CAACCAGG	-0.135
CCGGTAGA	0.264

Sequence	PBM E-score
AATCGCTC	-0.14
AGAGCACA	-0.168
TACGACCA	-0.207
ACCTATAT	-0.0149
AAGAGCAG	-0.211
GATCGTCA	-0.148
GGTTTATA	0.0656
ACTCGGAT	0.467
TCGCTCCA	-0.171
GCACAACA	-0.19
AAGCTATG	-0.116
GGTCGCTA	0.0304
AGGACGCA	-0.0219
CCCCGCGG	0.166
ACCACTGC	-0.125
AGAGAACT	-0.114
ACTTGGTG	-0.242
ACAGCGTG	-0.117
CCGGTGTC	0.236
GACTTCAA	-0.185
CAAGTCGA	-0.18
AGCCCGAA	0.264

Sequence	PBM E-score
CGCACGAA	-0.095
CCAAAGAC	0.00579
ATAACCAG	-0.169
ATCGCCAG	-0.193
AATGAGAT	-0.11
AAGCGTAG	0.0345
TCCTCCGA	0.344
ATATCAGA	0.152
GTAGATAA	0.135
TCGCCGAA	0.32
CGTGTTTC	0.142
ACACAAGT	-0.228
TAAGTCCA	-0.0323
GACGCCCC	0.0188
CCAGATGC	-0.116
ATTCTCTA	-0.191
GCGGGATA	0.217
AGGAGACG	-0.167
CGCAAGAC	-0.135
ATACATAA	-0.0857
GCCATATA	-0.0746
